Source: publication PMC4336329 (PLoS ONE, 2015)
About 14,000 (4.5%) of roughly 310,000 compounds showed an effect of 50% or more. The effect is printed as a negative number. The list shows a part of the results.

biological target: human ether-à-go-go-related gene (hERG) potassium channel (human, UniProt Q12809); test: primary screen, population patch clamp on CHO cells stably expressing hERG
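Note: peak tail current of the secondary pulse compared with the same well before compound.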

Chain of human ether-à-go-go-related gene (hERG) potassium channel (Q12809 whole entry, looked up): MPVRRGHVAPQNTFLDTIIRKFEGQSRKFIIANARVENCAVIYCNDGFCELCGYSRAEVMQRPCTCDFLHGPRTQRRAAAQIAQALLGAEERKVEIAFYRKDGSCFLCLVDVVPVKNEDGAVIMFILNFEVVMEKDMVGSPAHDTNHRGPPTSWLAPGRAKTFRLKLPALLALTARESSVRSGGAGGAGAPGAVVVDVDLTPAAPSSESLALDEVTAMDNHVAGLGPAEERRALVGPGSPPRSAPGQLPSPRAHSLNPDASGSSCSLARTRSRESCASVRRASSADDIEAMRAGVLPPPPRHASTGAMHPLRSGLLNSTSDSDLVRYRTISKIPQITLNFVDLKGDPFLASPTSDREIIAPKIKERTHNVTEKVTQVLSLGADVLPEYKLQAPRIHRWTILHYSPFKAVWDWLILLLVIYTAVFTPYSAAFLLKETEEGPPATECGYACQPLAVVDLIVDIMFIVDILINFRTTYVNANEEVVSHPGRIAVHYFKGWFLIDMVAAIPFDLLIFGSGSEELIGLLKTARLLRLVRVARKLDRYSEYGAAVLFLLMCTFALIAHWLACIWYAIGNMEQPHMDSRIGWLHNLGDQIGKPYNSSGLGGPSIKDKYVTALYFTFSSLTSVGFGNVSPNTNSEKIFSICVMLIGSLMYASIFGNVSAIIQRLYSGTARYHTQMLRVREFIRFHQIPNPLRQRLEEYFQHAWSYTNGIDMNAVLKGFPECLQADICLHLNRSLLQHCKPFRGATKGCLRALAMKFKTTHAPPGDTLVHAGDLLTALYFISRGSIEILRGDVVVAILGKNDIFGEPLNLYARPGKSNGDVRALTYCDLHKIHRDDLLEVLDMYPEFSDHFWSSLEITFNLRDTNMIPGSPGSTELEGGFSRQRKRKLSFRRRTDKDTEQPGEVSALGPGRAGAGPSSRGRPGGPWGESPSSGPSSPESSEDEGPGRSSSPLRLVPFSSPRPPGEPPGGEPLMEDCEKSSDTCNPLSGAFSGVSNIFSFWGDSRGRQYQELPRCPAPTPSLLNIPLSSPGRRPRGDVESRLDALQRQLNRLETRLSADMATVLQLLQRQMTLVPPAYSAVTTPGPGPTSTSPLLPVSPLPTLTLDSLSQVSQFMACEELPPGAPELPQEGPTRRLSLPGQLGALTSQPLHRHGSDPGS

Point of comparison: `Cc1ccccc1C(=O)Nc1ccccc1NC(=O)c1ccccc1Br`, “hERG current change (%, negative = inhibition) at 10uM” value 25.4%. Against it:
- Cc1nn(-c2ccccc2)c(N)c1Sc1ccccc1[N+](=O)[O-] — lower, -26.7%
- Cc1ccc2[nH]c(=O)c(CNS(=O)(=O)c3ccccc3)c(-c3ccccc3)c2c1 — lower, 16.2%
- O=C(NC1CCCC1)C1CC1c1ccccc1 (centres unmarked) — lower, -1.17%
- CCOC(=O)CN1C(=O)C2(OCCCO2)c2cc(Br)ccc21 — lower, 7.52%
- COc1cc(NC(=O)c2ccc(NS(=O)(=O)c3c(C)noc3C)cc2)cc(OC)c1 — lower, 1.03%
- Cc1ccc(S(=O)(=O)N2CCOCC2)cc1NC(=O)COc1ncnc2ccccc12 — lower, 12.9%
- CCOC(=O)C1=C(CN2CCN(c3ccc(F)cc3)CC2)NC(=O)NC1c1cccs1 (centres unmarked) — lower, -41%
- O=C(c1cccc(F)c1)N1CCN(c2cc(N3CCCCC3)c(F)cc2[N+](=O)[O-])CC1 — lower, 0.466%
- COc1ccc(/C=N/NC(=S)Nc2cccc(C(=O)O)c2)cc1 — lower, 15.9%
- CCOC(=O)c1cc2c(=O)n3ccccc3nc2n(CCOC)c1=NC(=O)c1ccncc1 — lower, -51.3%
- CCOC(=O)c1ccc(NC(=O)COc2ccccc2CNCCc2ccccc2)cc1.Cl — lower, -79.3%
- Cc1ccc(Oc2cc(NN3CCCCC3)c([N+](=O)[O-])cc2[N+](=O)[O-])c(Cl)c1 — lower, -7.28%
- Cc1ccc(S(=O)(=O)N2CCCC2CNC(=O)C(=O)NCc2cccs2)cc1 (centres unmarked) — lower, -23.2%
- Cc1nc(N)sc1C(=O)N/N=C/c1ccccc1[N+](=O)[O-] — higher, 43.7%
- CCCn1c(N)c(N(CCOC)C(=O)COC(=O)CSc2cc(C)c3ccccc3n2)c(=O)[nH]c1=O — lower, 1.53%
- N/C(=N\OC(=O)c1ccc([N+](=O)[O-])cc1)c1ccc(Br)cc1 — lower, 6.19%
- CCOc1ccccc1NC(=O)Cn1c(=O)n(CCC(=O)NC2CCCC2)c(=O)c2ccccc21 — lower, 5.15%
- O=C(c1ccc2c(=O)n3c(nc2c1)CCCCC3)N1CCCCC1 — lower, 17.5%
- CC(Oc1ccccc1)C(=O)N1CCN(c2ccc(N3CCCCCC3)nn2)CC1 (centres unmarked) — lower, -52.7%
- CCNC(=O)Cn1cnc2c1c(=O)n(C)c(=O)n2C — lower, 20.9%
- CCCOc1ccc(N2C(=O)CC(NCc3cccs3)C2=O)cc1 (centres unmarked) — lower, -18.6%
- C[C@H](NC(=O)[C@@H]1Cc2ccccc2CN1C(=O)OC(C)(C)C)C(=O)NCC1CCCO1 (some centres unmarked) — lower, 20.6%
- COc1ccc(NC(=O)C(C)(C)Oc2ccc(Cl)cc2)cn1 — lower, -23.3%
- CCCCCOCC(O)CCC(=O)NN (centres unmarked) — lower, 24.8%
- Cc1ccccc1C(C(=O)NC1CCCC1)N(C(=O)Cc1cccs1)c1ccc2c(c1)OCCO2 (centres unmarked) — lower, -5.9%
- CCOc1ccc(N2CC(C(=O)N3CCN(C(=O)c4ccco4)CC3)CC2=O)cc1 (centres unmarked) — lower, -63.4%
- COc1ccc(CC(=O)Nc2ccc3c(c2)CCC3)cc1S(=O)(=O)N1CCOCC1 — lower, -31.6%
- CC(O)CN1CCN(C(=O)CN2C(=O)NC(c3ccccc3)(c3ccccc3)C2=O)CC1 (centres unmarked) — lower, 5.27%
- CCOC(=O)C1=C(C)NC(=O)NC1c1cccnc1 (centres unmarked) — lower, -0.326%
- COc1ccc(C(=O)CN2CCN(CCN3C(=O)c4cccc5cccc(c45)C3=O)CC2)cc1 — lower, -26.5%
- COC(=O)c1ccc(-c2ncc[nH]2)cc1 — lower, -5.14%
- CCOC(=O)c1cnc(SCC(=O)c2ccc(C)cc2)nc1N — lower, 19.9%
- O=C(COC(=O)c1cc(S(=O)(=O)N2CCOCC2)ccc1Cl)NCCc1ccccc1 — lower, -23.3%
- Cc1ccc2c(c1)C1CC(C)(O2)N(c2cccc(C(=O)NCc3ccccn3)c2)C(=O)N1 (centres unmarked) — lower, 3.78%
- COc1ccc(NC(=S)Nc2cccc([N+](=O)[O-])c2)cc1 — lower, 3.68%
- CC(C)(C)c1cc(NC(=O)c2ccco2)no1 — lower, -7.04%
- O=C(Nc1cccc(S(=O)(=O)N2CCCC2)c1)c1ccncc1 — lower, -46.5%
- COC(=O)c1sccc1NC(=O)/C=C/c1ccc(Cl)cc1Cl — lower, 15.5%
- O=C(NCc1ccc(S(=O)(=O)Nc2ccccc2Cl)s1)c1ccccc1 — lower, -5.2%
- COc1ccc(OC)c(NC(=O)NCc2cccnc2)c1 — lower, 24.1%
- CCOC(=O)c1ccc(N2C(=O)CC(C)(CC)CC2=O)cc1 — lower, 3.55%
- COc1ccc(CC(=O)N2CCCC(C)C2)cc1 (centres unmarked) — lower, 18.1%
- COc1ccc(-c2ccc(C(C)=O)cc2)cc1[C@H]1[C@@H]2C=CCC[C@@]2(C)C(=O)N1Cc1ccccc1 — higher, 28.6%
- COc1ccc(/C=C(\NC(=O)c2ccc(C)cc2)C(=O)NCCCn2ccnc2)cc1OC — lower, 8.48%
- CCC(c1nnnn1Cc1ccccc1)N(Cc1ccco1)Cc1cc2cc(OC)ccc2[nH]c1=O (centres unmarked) — lower, -18.9%
- Cc1onc(-c2ccccc2)c1C(=O)c1c[nH]c(C(=O)NCc2ccncc2)c1 — lower, 5.17%
- Fc1cccc(Cc2noc(CN3CCN(C4CCc5ccccc5C4)CC3)n2)c1 (centres unmarked) — lower, -78.6%
- CC12C=CC3(O1)C(C(=O)N(c1cccnc1)C3C(=O)NC1CCCCC1)C2C(=O)Nc1ccccc1 (centres unmarked) — lower, 13.6%
- CCCCn1c(N)c(N(CCOC)C(=O)C(C)Oc2ccc(Cl)cc2)c(=O)[nH]c1=O (centres unmarked) — lower, -6.37%
- O=C(CNS(=O)(=O)c1ccccc1)OCC(=O)c1ccc(OC(=O)c2ccccc2)cc1 — lower, -3.7%
- COc1ccc(N2CCN(C(=O)CSc3nnnn3C3CC3)CC2)cc1 — lower, -13.6%
- Cc1cc(C)nc(N/N=C/c2cn[nH]c2-c2ccccc2)n1 — lower, -6.34%
- CCCCCCCOc1ccc(C2(C)NC(=O)NC2=O)cc1 (centres unmarked) — lower, 11.3%
- COc1ccc(NC(=O)CSc2nnc(Cn3cnc4ccccc43)n2C)cc1 — lower, 4.13%
- CC(C)CN(CCOc1cccc(N2C(=O)C3=C(CCCC3)C2=O)c1)CC(C)C — lower, -42.7%
- COc1ccc(-c2cc(C(=O)Nc3nc4ccccc4s3)c3ccccc3n2)cc1OC — higher, 29.6%
- Cc1ccc(NC(=O)c2ccc(OC(=O)CCN3C(=O)c4ccccc4C3=O)cc2)cc1 — lower, 6.93%
- CCN(C(=O)CSc1nc2cc(C(=O)OC)ccc2c(=O)n1Cc1ccco1)c1cccc(C)c1 — lower, -6.91%
- COc1ccc(N(C(=O)c2cnccn2)C(C(=O)NC2CCCCC2)c2cc(OC)c(OC)c(OC)c2)cc1 (centres unmarked) — lower, 17.4%
- COc1ccccc1C1=Nn2c(nnc2C2CCCCC2)SC1 — lower, -23.4%
- COc1ccc(C(=O)CCN2CCCC(C)C2)cc1.Cl (centres unmarked) — lower, -26.2%
- COC(=O)C1=C(C)NC2=C(C(=O)C(C(=O)OC)C(c3ccc(OC)cc3)C2)C1c1ccccn1 (centres unmarked) — lower, -7.27%
- COc1ccc(C(=O)OCc2cc(=O)n3c(C)csc3n2)cc1F — lower, -2.77%
- CCOC(=O)c1c(NC(=O)CSc2nnc(CNc3ccc(OC)cc3)n2C)sc(C)c1C — lower, -21.7%
- COCc1nnc(NC(=O)CC(C)c2ccccc2)s1 (centres unmarked) — lower, 18.7%
- CCOC(=O)Cn1nc(NC(=O)COc2ccc(F)cc2)cc1C — lower, -0.548%
- CC1CCCC(NC(=O)C2CCN(C(=O)Nc3ccccc3)CC2)C1C (centres unmarked) — lower, -3.13%
- CCOc1ccc(C(=O)NCCc2cnc[nH]2)cc1 — lower, 8.02%
- COc1cccc(CN2CCNC(=O)C2CC(=O)N2CCOc3ccccc3C2)c1OC (centres unmarked) — lower, 7.79%
- c1ccc2c(CNC3CCCCC3)c[nH]c2c1 — lower, -20.7%
- CCCNC(=O)COC(=O)/C=C/c1ccco1 — lower, 2.96%
- COc1ccc(S(=O)(=O)N2CCCCCC2)cc1C(=O)OCC(=O)Nc1cc(C)on1 — lower, 9.6%
- CC(=O)N/C(=C\c1ccc(F)cc1)C(=O)NC(Cc1c[nH]c2ccccc12)C(=O)O (centres unmarked) — lower, -8.16%
- Cc1cc(C)c(C#N)c(N2CCCC2)n1 — lower, 5.67%
- O=C1/C(=C/c2ccc3c(c2)OCO3)Oc2cc(OCC(=O)N3CCC[C@H]3C(=O)O)ccc21 — lower, 9.16%
- C/C(=N\Nc1ccccc1)c1c(O)cc(C)oc1=O — lower, 20.8%
- COc1cccc(NC(=O)CN2C(=O)NC(CCc3ccccc3)C2=O)c1 (centres unmarked) — lower, -7.13%
- C=CCNc1sc(C(=O)C2CC2)c(N)c1C#N — lower, -16.5%
- OC(CN1CCCCC1)c1c[nH]c2ccccc12 (centres unmarked) — lower, 6.4%
- COCCNC(=O)c1cccc(OC2CCN(Cc3ccc(OC(F)F)cc3)CC2)c1 — lower, -73.5%
- Cc1cc(OCC(=O)NCCN2CCOCC2)cc(C)c1Cl — lower, 2.78%
- CCOC(=O)C1CCN(C(c2cc3ccc(C)c(C)c3[nH]c2=O)c2nnnn2C2CCCCC2)CC1 (centres unmarked) — lower, 2.13%
- Cn1ccnc1C(O)(c1ccccc1)c1ccccc1 — lower, 3.78%
- N#Cc1ccc(-c2csc(-c3ccno3)n2)cc1 — lower, -14.6%
- CCOC(=O)NC(=O)/C(C=Nc1ccc(Cl)c(Cl)c1Cl)=C(\C)O — lower, 8.2%
